The chains are these.
B1: TPR 5TU (parent)
chain: GGAUCUUCUCGAUCUAACAAAAAAGACAAAUCUGCCACAAAGCUUGAGAGCAUCUUCGGAUGCAGAGGCGGCAGCCUUCGGUGGCGCGAUAGCGCCAACGUUCUCAACUAUGACACGCAAAACGCGUGCUCCGUUGAAUGGAGUUUAUCAUG

This sample is rich in variants without activity. Some results are limits rather than exact numbers.

This series covers variants of B1. Nature of the series: polymerase ribozyme fitness, log enrichment relative to wild type (log ratio); higher = more active; in vitro selection for triplet polymerase activity. The method in brief:
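Each subunit of a heterodimeric triplet polymerase ribozyme was mutagenized into a library by PCR, transcribed, and subjected to one round of in vitro selection, run in triplicate. Libraries were annealed with a biotinylated primer, the partner subunit and triplets, incubated frozen at −7 °C, and extended constructs were gel-excised, captured on streptavidin beads and recovered by RT-PCR. Input and output libraries were sequenced on Illumina, keeping genotypes with ≥10 input reads and ≥1 read per output. Fitness is log base 2 of genotype enrichment divided by wild-type enrichment, from inverse-variance-weighted replicate averages.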
Consider U33G G117A U134C, for which the “polymerase ribozyme fitness (log ratio)” value is -2.88.

Consider A30U G59C G140A, for which the “polymerase ribozyme fitness (log ratio)” value is not above -4.2.

As to U31C A40C G74A C95U, the “polymerase ribozyme fitness (log ratio)” value was not above -4.2.

For the variant U31A U135G G143C, the “polymerase ribozyme fitness (log ratio)” value was -3.93.

As for C32G C51U G58C A97U C99U A113U G140A A147C, the “polymerase ribozyme fitness (log ratio)” value was not above -4.2.

With C32A A91U C99U A120C, the “polymerase ribozyme fitness (log ratio)” value is not above -4.2.

As for U31C U56A G68A G92A A98C G140U G141U, the “polymerase ribozyme fitness (log ratio)” value is not above -4.2.

Turning to U31A A66U A91G, the “polymerase ribozyme fitness (log ratio)” value was not above -4.2.

As for U33C G81U C93G G143U, the “polymerase ribozyme fitness (log ratio)” value was -4.06.

A30U G94U G143C: the “polymerase ribozyme fitness (log ratio)” value is not above -4.2.

For U31G A52G C114U C125U U144C U148A, the “polymerase ribozyme fitness (log ratio)” value is not above -4.2.

For the variant U31G C123U, the “polymerase ribozyme fitness (log ratio)” value was determined as 0.732.

U33G A60G: the “polymerase ribozyme fitness (log ratio)” value is -2.79.

In the case of G34A C57A G58A G65C G68A C79G A106G C129G, the “polymerase ribozyme fitness (log ratio)” value was not above -4.2.

U31A G48C C51U C63U U78G U90A C95A C105G A115U C118G A150C: the “polymerase ribozyme fitness (log ratio)” value is not above -4.2.

Regarding U33C C85A, the “polymerase ribozyme fitness (log ratio)” value is -3.61.

For U33A G50C G81A C93G C96U A98G C103G G152U, the “polymerase ribozyme fitness (log ratio)” value is not above -4.2.

Regarding U31A C38A G50C C85U, the “polymerase ribozyme fitness (log ratio)” value is not above -4.2.

Regarding C32U C36U G68A G83U, the “polymerase ribozyme fitness (log ratio)” value is not above -4.2.

On to U33C C57U G80U G83U C87U G128U, for which the “polymerase ribozyme fitness (log ratio)” value was not above -4.2.

Regarding U33G G74A C87G, the “polymerase ribozyme fitness (log ratio)” value was not above -4.2.

On to C32U U45A C96A A120U, for which the “polymerase ribozyme fitness (log ratio)” value is not above -4.2.

With U31A U44G A52C C57U G80C U90A C96A U111G, the “polymerase ribozyme fitness (log ratio)” value is not above -4.2.

Turning to U31A C54U G58A A73G C93G C95A, the “polymerase ribozyme fitness (log ratio)” value is not above -4.2.

For U31C A91C A97G U104G, the “polymerase ribozyme fitness (log ratio)” value was not above -4.2.

As for C32G A60C C76U C79G C87U U135C, the “polymerase ribozyme fitness (log ratio)” value is not above -4.2.

Consider U31C A41U A115G U144G, for which the “polymerase ribozyme fitness (log ratio)” value was -1.6.

As for U31C A47G A52C C69A C85G U101G, the “polymerase ribozyme fitness (log ratio)” value is not above -4.2.

As for U33A A64G C105G, the “polymerase ribozyme fitness (log ratio)” value is not above -4.2.

For U33G G46A G94C C95U U135A, the “polymerase ribozyme fitness (log ratio)” value is not above -4.2.

Take U31A G83C C105U U127G G133A A137C: the “polymerase ribozyme fitness (log ratio)” value is not above -4.2.

With C32G A40U G86C A113U G143A, the “polymerase ribozyme fitness (log ratio)” value was not above -4.2.

With A30U C79U G83C, the “polymerase ribozyme fitness (log ratio)” value was not above -4.2.

As to U33C C69U, the “polymerase ribozyme fitness (log ratio)” value was -0.0558.

Turning to C32A A37U U56G G80C G81A C105G A122C C123A, the “polymerase ribozyme fitness (log ratio)” value is not above -4.2.

For the variant U33G G50A A52C C76U C79U A107G U151A, the “polymerase ribozyme fitness (log ratio)” value is not above -4.2.

With U31C A37G C99A A115U A120G G133U, the “polymerase ribozyme fitness (log ratio)” value was not above -4.2.

For C32G C69A A73G C93U A98U G100U C105U A110C C116U, the “polymerase ribozyme fitness (log ratio)” value is not above -4.2.

In the case of U33G U77G G86U U139A, the “polymerase ribozyme fitness (log ratio)” value is not above -4.2.

As for U31G C57A A73C C87G C96G C116G A142U, the “polymerase ribozyme fitness (log ratio)” value is not above -4.2.

As for C32G G50A G94U U134A, the “polymerase ribozyme fitness (log ratio)” value is not above -4.2.

In the case of U31G U145A, the “polymerase ribozyme fitness (log ratio)” value is 0.652.

Consider U31A A73C, for which the “polymerase ribozyme fitness (log ratio)” value is -4.13.

Consider C32G G84U G88A C114A U139A C149A, for which the “polymerase ribozyme fitness (log ratio)” value is not above -4.2.

Turning to U31G G58U C85U A91G U127G, the “polymerase ribozyme fitness (log ratio)” value is not above -4.2.

C32G U55G C87G A138U A150U: the “polymerase ribozyme fitness (log ratio)” value is not above -4.2.

For the variant C32U G81U G84A G94C, the “polymerase ribozyme fitness (log ratio)” value was -3.46.

For the variant U33G G58C G65A A138C, the “polymerase ribozyme fitness (log ratio)” value was not above -4.2.

Turning to C32G A40U C57U U135G, the “polymerase ribozyme fitness (log ratio)” value is not above -4.2.

Regarding U31A A73G C85G G143U, the “polymerase ribozyme fitness (log ratio)” value was not above -4.2.

For C32A U44A G71A C87A A106U A137G, the “polymerase ribozyme fitness (log ratio)” value was not above -4.2.

Turning to A30U U61A G70C C96A U111G G140A, the “polymerase ribozyme fitness (log ratio)” value was not above -4.2.

On to U33A G50U G58C G141A A150G, for which the “polymerase ribozyme fitness (log ratio)” value was not above -4.2.

For C32A A91G C99U A119C G141C, the “polymerase ribozyme fitness (log ratio)” value was not above -4.2.

As to U33C U56C G59C C79A C95U C123A, the “polymerase ribozyme fitness (log ratio)” value was not above -4.2.

In the case of C32U A40C C85G C103A, the “polymerase ribozyme fitness (log ratio)” value is not above -4.2.

On to U31C G50C C69G C132G G143U U146C, for which the “polymerase ribozyme fitness (log ratio)” value was not above -4.2.

Turning to U31A U33A A49C C123U U139C, the “polymerase ribozyme fitness (log ratio)” value is not above -4.2.

With U33G G67U C85G C96G A122G G140A, the “polymerase ribozyme fitness (log ratio)” value is not above -4.2.

For U33A C95U A142U G143U, the “polymerase ribozyme fitness (log ratio)” value is -4.13.

Take C32U G83U C85A C105A A106U C131G G143C: the “polymerase ribozyme fitness (log ratio)” value was not above -4.2.

As for U31G G46C C85U G124U, the “polymerase ribozyme fitness (log ratio)” value is not above -4.2.

For the variant C32G G86U U111G A115U G141A, the “polymerase ribozyme fitness (log ratio)” value is not above -4.2.

U33A A49C C76U G80U C149G: the “polymerase ribozyme fitness (log ratio)” value was not above -4.2.

For the variant C32U A39G G50U A73G U109C G126A G133U, the “polymerase ribozyme fitness (log ratio)” value was not above -4.2.

Regarding C32G G68A G81A G86U A115U, the “polymerase ribozyme fitness (log ratio)” value is not above -4.2.

U33A G84U C116G C123G G133U: the “polymerase ribozyme fitness (log ratio)” value was not above -4.2.

On to U31G C54A A91C G143C, for which the “polymerase ribozyme fitness (log ratio)” value is not above -4.2.

Regarding C32U C38U A49C C85A G126C, the “polymerase ribozyme fitness (log ratio)” value was not above -4.2.

Regarding U33A U102C A107U A110G U144C, the “polymerase ribozyme fitness (log ratio)” value was not above -4.2.

For C32G G92U U127G G152U, the “polymerase ribozyme fitness (log ratio)” value was -3.98.

With U33G U90C A137U, the “polymerase ribozyme fitness (log ratio)” value is not above -4.2.

Take G34A A40U U45C C69A C76A C87U G94A A106G A122U G124C U151A: the “polymerase ribozyme fitness (log ratio)” value is not above -4.2.

Take U33C G70C A119C G124U U146G: the “polymerase ribozyme fitness (log ratio)” value is not above -4.2.

For the variant U31G A40G G83C A142G, the “polymerase ribozyme fitness (log ratio)” value is not above -4.2.

In the case of U31C G46C G92A, the “polymerase ribozyme fitness (log ratio)” value was -3.48.

U31G C54U U101C: the “polymerase ribozyme fitness (log ratio)” value was -0.138.

With G34A C93G C105G, the “polymerase ribozyme fitness (log ratio)” value was not above -4.2.

For U31A A52C A91U, the “polymerase ribozyme fitness (log ratio)” value is -4.06.

U33C C36A U55A G83A A89G A142U U148C: the “polymerase ribozyme fitness (log ratio)” value was not above -4.2.

As for C32G C87U C93G, the “polymerase ribozyme fitness (log ratio)” value is not above -4.2.

For the variant U31C A60C U61A A66G C87U U90G C105A, the “polymerase ribozyme fitness (log ratio)” value was not above -4.2.

With C32G C36G A91C U101C A107C, the “polymerase ribozyme fitness (log ratio)” value is not above -4.2.

Take U31A A66U G86U G100C: the “polymerase ribozyme fitness (log ratio)” value is not above -4.2.
